Reference: the supplement of paper PMC7826260
The list shows a part of the results. The data describe in vitro nicking of single-stranded DNA by Rep domains at 3 µM enzyme and 37 °C for 1 h; the strands have 90 letters, of which the middle is given. Values are log2 of uncut reads against the no-enzyme pool; the lower, the more was cut; hits are not called. Shares of all reads are compared, so uncut sequences can rise above 0 when many others are cut.

Experiments:
Assay in all cases: uncleaved DNA left, log2 of reads against the no-enzyme library (log2 ratio); higher = less cleavage (more negative = more Rep cleavage of the k-mer); sequences stand for … in CTCGTCCG…ACCGGAGA
[1] = tested on: T1, Rep nickase domain of Muscovy duck circovirus
T1 sequence (protein, residues 1-111, tag omitted): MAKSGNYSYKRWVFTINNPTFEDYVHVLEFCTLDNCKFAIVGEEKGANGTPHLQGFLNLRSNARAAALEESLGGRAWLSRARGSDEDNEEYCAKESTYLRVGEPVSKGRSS
Experimental: (§1)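 A pool of 90-nt single-stranded DNAs with seven random bases just before the constant AC of the nick site (name = the seven bases) was cut by 3 µM recombinant His6-SUMO-tagged Rep nickase domain (300 nM DNA, 50 mM HEPES pH 8.0, 50 mM NaCl, 1 mM MnCl2, 1 h, 37 °C, three replicates). Uncut DNA was amplified and sequenced.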

[2] = tested on: T2, Rep nickase domain of banana bunchy top virus
T2 sequence (protein, residues 1-94, tag omitted): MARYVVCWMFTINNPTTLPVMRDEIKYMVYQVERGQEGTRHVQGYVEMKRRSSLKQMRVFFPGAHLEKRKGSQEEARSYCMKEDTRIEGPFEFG
Experimental: as §1

[3] = tested on: T3, Rep nickase domain of cabbage leaf curl virus
T3 sequence (protein, residues 1-116, tag omitted): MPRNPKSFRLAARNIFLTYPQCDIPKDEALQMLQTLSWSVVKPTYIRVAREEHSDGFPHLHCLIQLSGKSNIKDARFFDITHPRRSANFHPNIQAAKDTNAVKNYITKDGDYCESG
Experimental: as §1

[4] = tested on: T4, Rep nickase domain of chickpea chlorotic dwarf virus
T4 sequence (protein, residues 1-124, tag omitted): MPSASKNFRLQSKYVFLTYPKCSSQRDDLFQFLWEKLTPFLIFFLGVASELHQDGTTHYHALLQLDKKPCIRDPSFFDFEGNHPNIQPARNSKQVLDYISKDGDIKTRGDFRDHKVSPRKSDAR
Experimental: as §1

[5] = tested on: T5, Rep nickase domain of faba bean necrotic yellows virus
T5 sequence (protein, residues 1-98, tag omitted): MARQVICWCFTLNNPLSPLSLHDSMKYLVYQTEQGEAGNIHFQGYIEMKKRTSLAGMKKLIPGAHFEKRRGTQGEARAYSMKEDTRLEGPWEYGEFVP
Experimental: as §1

[6] = tested on: T6, Rep nickase domain of maize striate mosaic virus
T6 sequence (protein, residues 1-117, tag omitted): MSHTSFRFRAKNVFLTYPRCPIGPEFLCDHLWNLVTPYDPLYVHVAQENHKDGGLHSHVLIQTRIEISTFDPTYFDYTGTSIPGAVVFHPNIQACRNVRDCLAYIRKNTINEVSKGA
Experimental: as §1

[7] = tested on: T7, Rep nickase domain of porcine circovirus 2
T7 sequence (protein, residues 2-116, tag omitted): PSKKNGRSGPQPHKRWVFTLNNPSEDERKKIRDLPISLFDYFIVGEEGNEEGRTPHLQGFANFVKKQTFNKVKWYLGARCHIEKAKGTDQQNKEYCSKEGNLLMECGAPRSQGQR
Experimental: as §1

[8] = tested on: T8, Rep nickase domain of tomato golden mosaic virus
T8 sequence (protein, residues 1-124, tag omitted): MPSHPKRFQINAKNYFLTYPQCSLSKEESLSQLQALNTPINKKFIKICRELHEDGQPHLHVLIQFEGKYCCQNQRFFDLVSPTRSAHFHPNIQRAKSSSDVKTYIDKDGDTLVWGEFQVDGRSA
Experimental: as §1

[9] = tested on: T9, Rep nickase domain of tomato yellow leaf curl virus
T9 sequence (protein, residues 1-136, tag omitted): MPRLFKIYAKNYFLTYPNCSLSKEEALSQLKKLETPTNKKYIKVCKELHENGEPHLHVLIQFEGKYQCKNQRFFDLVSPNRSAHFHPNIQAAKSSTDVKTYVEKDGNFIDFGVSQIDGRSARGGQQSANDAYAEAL
Experimental: as §1

[10] = tested on: T10, Rep nickase domain of wheat dwarf virus
T10 sequence (protein, residues 1-137, tag omitted): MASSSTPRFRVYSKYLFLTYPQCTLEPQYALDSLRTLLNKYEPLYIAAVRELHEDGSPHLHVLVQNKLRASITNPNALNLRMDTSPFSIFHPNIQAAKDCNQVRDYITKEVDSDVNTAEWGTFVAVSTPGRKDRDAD
Experimental: as §1

Sequence	uncleaved DNA left (log2) [1]	uncleaved DNA left (log2) [2]	uncleaved DNA left (log2) [3]	uncleaved DNA left (log2) [4]	uncleaved DNA left (log2) [5]	uncleaved DNA left (log2) [6]	uncleaved DNA left (log2) [7]	uncleaved DNA left (log2) [8]	uncleaved DNA left (log2) [9]	uncleaved DNA left (log2) [10]
TACTCAC	-0.165	-0.0186	-0.153	-0.954	0.0282	-0.487	-1.43	-0.056	-0.0664	0.0465
CTAATCG	-0.0151	-0.0524	-0.776	0.163	0.0435	-0.989	0.159	0.0267	0.0964	-0.0985
ACGACTT	-0.0429	0.101	0.161	0.285	0.0904	1.45	-0.093	0.0734	-0.00623	0.197
GACGGTG	0.0345	-0.0315	-0.389	-0.212	0.096	-0.418	0.0974	-0.00549	0.0786	-0.156
TTTGTAT	-0.0389	-0.121	0.142	-0.645	-0.0864	-0.61	-0.183	-0.2	-0.104	-0.142
TGTGAAA	0.0399	0.0639	0.211	0.728	0.0327	0.992	0.169	0.0649	0.0175	0.0524
CCCTACG	0.122	0.106	-0.742	-0.178	-0.0582	-0.639	0.129	0.114	0.163	0.0713
GTCCGCC	-0.0211	-0.0409	0.236	0.613	-0.0379	0.901	0.0189	-0.0517	0.0128	-0.0671
TTTTACG	0.00428	0.0781	-0.869	-1.04	0.13	-1.07	0.123	-0.0494	0.00433	-0.024
GGCACTC	-0.0547	-0.103	0.47	1.25	-0.0579	1.78	-0.0906	-0.126	-0.113	0.000853
AATAAGT	-0.00644	-0.113	-0.0774	-1.14	0.0632	-1.03	-1.69	0.0965	0.0101	-0.121
GATTGTT	-2.9	-2.85	-0.805	-1.87	-1.43	-0.446	-3.38	-0.695	0.167	-0.473
CTAGAAT	0.0294	-0.0811	0.0801	-0.00996	-0.161	0.373	-0.298	0.0179	-0.0416	-0.117
TAATTTT	-4.18	-3.57	-5.64	-3.38	-1.06	-4.46	-5.1	-4.29	-3.82	-5.44
TACTATC	-0.177	-0.115	-0.555	-1.67	-0.101	-0.595	-3.06	-0.0836	0.107	0.036
CCCCAGC	0.0173	-0.0741	-0.311	-0.51	-0.0617	-0.97	0.156	0.121	0.0962	0.0272
AGACGCC	0.106	-0.00143	0.594	1.2	0.064	1.28	0.132	-0.0158	0.0109	0.138
CCCGGGA	0.0263	-0.0344	0.433	0.952	-0.103	1.49	0.0151	0.00375	0.0807	-0.0348
GCTTAAA	0.000855	0.11	0.0543	0.582	-0.0301	0.498	0.175	0.107	0.0462	0.0756
TTCTCAT	-0.0972	-0.13	-0.00703	-0.632	-0.16	-0.199	-0.69	-0.159	-0.0892	-0.0417
CCCATAG	0.141	0.226	-0.755	0.0694	-0.0175	-0.958	0.296	0.0262	0.128	0.0461
GTTGATG	-0.0506	-0.15	-0.107	-0.0621	-0.0202	-0.531	-0.012	-0.137	-0.0787	-0.203
TGGTTCT	-0.706	-0.0862	0.188	-0.839	-0.0357	0.689	-2.76	-0.114	-0.0473	-0.0722
TGACTAC	0.0881	0.114	0.279	-0.226	0.0406	0.904	0.0338	-0.00154	0.00358	0.0585
AATTCCC	-0.878	-0.293	-0.0929	-0.466	-0.149	-0.421	-1.59	-0.0725	0.0734	-0.00448
ATTACGA	-0.0195	-0.0572	-0.198	-1.1	-0.0673	-1.06	0.029	-0.0766	-0.00118	-0.116
CTCTTCG	0.0114	-0.0124	-0.731	0.192	-0.0252	-0.888	0.147	0.0388	-0.0288	-0.172
AGTAAAT	-0.0187	-0.0448	0.0386	0.0938	-0.0843	0.097	-3.4	0.0194	0.0687	0.0816
GACTAGC	-0.000907	-0.0232	-0.0212	0.111	-0.0739	-0.453	0.104	0.0627	-0.048	0.054
CGGTCAA	-0.145	-0.0733	0.353	0.694	-0.0446	0.645	-0.0403	0.0417	0.0968	0.19
